# From PubChem BioAssay AID624417 (National Center for Advancing Translational Sciences (NCATS), 2012)
# Screen size: about 410,000 compounds; about 6,400 (1.6%) were called active. Inconclusive results, whose numbers are uncertain, are shown with a selection of clear calls. Calls come from the whole dose curve; as a rule, active = well fitted inhibition curve with a large enough effect; inconclusive = small, poorly fitted or top-dose-only effect; inactive = no such curve, though single readings can be large or run the other way. Potencies of inconclusive entries are left out as doubtful fits.
# Target: Glucagon-like peptide 1 receptor (Homo sapiens) (UniProt P43220)
# Assay: qHTS of GLP-1 Receptor Inverse Agonists (Inhibition Mode); note: nearly all actives have a fitted effect of over 55% in size
# Conditions: HEK293 GLP-1R CRE-luciferase, luminescence, 24 h, GLP-1R form is constitutively active; series mostly up to 38.3 µM
# In short: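 Inverse agonism was detected as reduced cAMP-driven luciferase luminescence after 24 h compound treatment. The cells were HEK293 clones expressing constitutively active human GLP-1R with the reporter. Reporter-only and GPR119 cell lines served as counterscreen controls.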
# Potency is the fitted concentration of half-maximal effect; tags give direction and shape of the fitted curve.
# Sequence of UniProt P43220 (P43220 whole entry, looked up): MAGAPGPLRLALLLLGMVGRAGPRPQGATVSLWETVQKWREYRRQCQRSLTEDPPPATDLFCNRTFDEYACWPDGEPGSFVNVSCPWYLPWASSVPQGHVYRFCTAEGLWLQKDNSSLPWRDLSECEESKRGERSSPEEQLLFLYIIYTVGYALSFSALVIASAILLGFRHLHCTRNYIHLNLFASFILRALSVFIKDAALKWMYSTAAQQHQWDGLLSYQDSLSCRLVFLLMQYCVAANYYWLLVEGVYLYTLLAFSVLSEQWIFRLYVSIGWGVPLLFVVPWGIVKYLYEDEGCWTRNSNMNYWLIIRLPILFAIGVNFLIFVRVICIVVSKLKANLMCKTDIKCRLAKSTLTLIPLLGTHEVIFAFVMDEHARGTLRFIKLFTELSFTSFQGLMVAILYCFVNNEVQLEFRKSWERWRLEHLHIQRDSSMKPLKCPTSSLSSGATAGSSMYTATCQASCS
row,Compound,Potency
1,Cc1ccccc1OCCSc1nc2ccc(NC(=O)c3ccco3)cc2s1,"inconclusive [inhibitor, single point]"
2,CN1CCN(c2nnc(-c3ccccc3)c(-c3ccccc3)n2)CC1,"inconclusive [inhibitor, single point]"
3,CC1CCc2noc(NC(=O)c3ccc([N+](=O)[O-])cc3)c2C1 (configuration not stated),inactive
4,CN1CCC(NCCC(c2ccc(F)cc2)c2ccc(Cl)cc2)CC1 (configuration not stated),"inconclusive [inhibitor, full curve, poor fit]"
5,CCN(CC(O)COc1ccc(OCC(O)CN(CC)C2CCCCC2)cc1)C1CCCCC1 (configuration not stated),active: 2.24 µM
6,CCOC(=O)c1c(C)[nH]c(C)c1S(=O)(=O)NCCN1CCN(c2ccccc2F)CC1,"inconclusive [inhibitor, single point]"
7,COc1cc(Nc2nc3c(S(=O)(=O)c4cccc(Cl)c4)nnn3c3ccsc23)cc(OC)c1,inactive
8,COc1ccccc1-n1ccnc(SCC(=O)NC2CCCCC2)c1=O,"inconclusive [inhibitor, single point]"
9,CCOc1ccc(NC(=O)Cn2nc(CC)n3c(cc4sccc43)c2=O)cc1,inactive
10,Cc1cccc(OC(C)C(=O)N2CCN(Cc3ccc4c(c3)OCO4)CC2)c1 (configuration not stated),"inconclusive [inhibitor, single point]"
11,COC(=O)c1ccc(COC(=O)c2ccc(C)c(S(=O)(=O)N3CCCCC3)c2)cc1,"inconclusive [inhibitor, single point]"
12,Cc1cc2nc(-c3cccc(Cl)c3)c(Cc3ccsc3)n2c(C)c1Br,"inconclusive [inhibitor, single point]"
13,O=C(N/C(=C\c1ccccc1)C(=O)N1CCOCC1)c1cccc(Br)c1,"inconclusive [inhibitor, partial curve]"
14,Cc1ccc(S(=O)(=O)N(C)c2nc3ccccc3[nH]c2=S)cc1,inactive
15,CSc1ccc(CN2C(=O)NC3(CCCCCC3)C2=O)cc1,"inconclusive [inhibitor, partial curve, poor fit]"
16,COC(=O)c1ccccc1NC(=O)Cn1c(=O)n(-c2ccc(C)cc2)c(=O)c2ccccc21,"inconclusive [inhibitor, full curve, poor fit]"
17,CC1CC(C)CN(C(=O)C(Cc2ccccc2)n2cccc2)C1 (configuration not stated),"inconclusive [inhibitor, single point]"
18,CCOC(=O)c1ccc(-c2ccc(/C=C(\C#N)C(=O)NCc3cccs3)o2)cc1,inactive
19,Cc1ccc(C(=O)/C=C/Nc2cccc(O)c2)cc1,"inconclusive [inhibitor, partial curve, poor fit]"
20,Cc1cccc(NC(=O)NCCc2ccc(Cl)cc2)c1,"inconclusive [inhibitor, partial curve, poor fit]"
21,O=C(Nc1ccon1)c1nc[nH]c1C(=O)N1CCc2ccccc2C1,inactive

row,Compound,Potency
1,COc1cc(/C=C2\SC(N)=NC2=O)ccc1OCC(=O)Nc1ccccc1C,"inconclusive [inhibitor, single point]"
2,Cc1ccc2nc(-c3ccc(Br)cc3)cn2c1,"inconclusive [inhibitor, full curve, poor fit]"
3,CC1C(=O)N(Cc2cn(CC3CCCCC3)nn2)CCS(=O)(=O)N1Cc1ccc(-c2ccc(Cl)c(Cl)c2)cc1 (configuration not stated),"inconclusive [inhibitor, single point]"
4,COc1ccccc1NCC(=O)c1ccc(C)c(C)c1,inactive
5,Cc1noc2ncnc(NCc3ccc(Cl)cc3)c12,"inconclusive [inhibitor, partial curve, poor fit]"
6,C=CC[C@@H](Cc1ccc(F)cc1)C(=O)OC[C@H]1CCCN1C(=O)[C@@H](CC=C)CC(=O)N(CCO)Cc1ccccc1,"inconclusive [inhibitor, single point]"
7,CCN1CCN(c2cc(C)c3cc(NC(=S)N(CC)CC)ccc3n2)CC1,"inconclusive [inhibitor, partial curve, poor fit]"
8,CC12CCC(=O)N1C(C(=O)Nc1ccc(Cl)c(S(=O)(=O)N3CCCCC3)c1)CS2 (configuration not stated),"inconclusive [inhibitor, partial curve, poor fit]"
9,COc1cccc(NC(=O)N(CCCN2CCOCC2)C(C)c2cc3cccc(OC)c3o2)c1 (configuration not stated),"inconclusive [inhibitor, full curve]"
10,O=c1n(-c2ccccc2)c(=O)n2n1CCCC2,inactive
11,Cc1[nH]c2ccccc2c1C(c1ccncc1)N1CCN(c2ccccc2F)CC1 (configuration not stated),"inconclusive [inhibitor, partial curve, poor fit]"
12,CCC(C)(C)C1CCc2[nH]nc(C(=O)NC(C)C)c2C1 (configuration not stated),"inconclusive [inhibitor, single point]"
13,O=C(CNC(=O)c1ccc2c(c1)OCO2)N/N=C/c1cc(Br)ccc1O,"inconclusive [inhibitor, partial curve, poor fit]"
14,CCN1CCN(c2ccc(NC(=O)COc3ccc(Cl)cc3C)cc2)CC1,"inconclusive [inhibitor, full curve, poor fit]"
15,Cc1ccc(CNC(=O)c2c[nH]n3c(=O)c(Cc4ccc(F)cc4Cl)c(C)nc23)cc1,"inconclusive [inhibitor, partial curve, poor fit]"
16,C[C@H](CO)N1C[C@H](C)[C@@H](CN(C)Cc2ccc(Cl)c(Cl)c2)Oc2c(NC(=O)Cc3ccccc3)cccc2C1=O,"inconclusive [inhibitor, partial curve, poor fit]"
17,O=C(O)/C=C/C(=O)NCCC(c1ccccc1)c1ccccc1,"inconclusive [inhibitor, partial curve, poor fit]"
18,COc1ccc(NC(=O)CCCn2c(=O)c3sccc3n(Cc3ccccc3C)c2=O)cc1,"inconclusive [inhibitor, single point]"
19,O=C(N/N=C/c1ccco1)c1cc(-c2ccc3ccccc3c2)n[nH]1,"inconclusive [inhibitor, single point]"
20,NC(=O)c1ncc(C(F)(F)F)cc1Oc1cccc(C(F)(F)F)c1,"inconclusive [inhibitor, full curve, poor fit]"
21,Oc1ccc(Cl)cc1CNCc1ccc(F)c(F)c1,"inconclusive [inhibitor, single point]"

row,Compound,Potency
1,COc1ccc(Nc2c3c(nc4ccc(NC(=O)c5cc(Cl)ccc5OC)cc24)CCCC3)cc1OC,"inconclusive [inhibitor, partial curve, poor fit]"
2,O=S(=O)(NCC(c1ccco1)N1CCc2ccccc2C1)c1ccc(Br)cc1 (configuration not stated),"inconclusive [inhibitor, single point]"
3,Cc1cc(C)c(C)c(S(=O)(=O)N2CCN(C(=O)c3cc(=O)[nH]c4ccccc34)CC2)c1C,"inconclusive [inhibitor, single point]"
4,CC(C)Oc1ccc(CNC(=O)c2cccc(NC(=O)c3nsc4ccccc34)c2)cc1,"inconclusive [inhibitor, single point]"
5,Cc1c(NC(=O)C(Sc2ccccc2)c2ccccc2)cccc1[N+](=O)[O-] (configuration not stated),"inconclusive [inhibitor, full curve, poor fit]"
6,CCN1C(=O)/C(=C/C=C2/CCCN2C)OC1=S,inactive
7,Clc1cccc(Cc2c(-c3cccc(Br)c3)nc3ccc(Cl)cn23)c1,"inconclusive [inhibitor, single point]"
8,CC1(C(=O)Nc2ccc3ccccc3c2)CCC(=O)N1CCc1c[nH]c2ccccc12 (configuration not stated),"inconclusive [inhibitor, single point]"
9,COc1cccc(N2CCN(CC(=O)NC(C)c3ccccc3)CC2)c1 (configuration not stated),"inconclusive [inhibitor, single point]"
10,O=C(CN(c1ccc2c(c1)OCCO2)S(=O)(=O)c1ccccc1)N1CCN(Cc2ccccc2)CC1,"inconclusive [inhibitor, single point]"
11,CCOC(=O)C1=C(COc2ccccc2)NC(=O)NC1c1ccc(Cl)cc1 (configuration not stated),"inconclusive [inhibitor, single point]"
12,O=C(Nc1ccc2c(c1)OCCO2)c1cc2sccc2n1Cc1ccc(F)cc1,active: 5.62 µM
13,CC1CCCC(NC(=O)COC(=O)c2cc(S(=O)(=O)N3CCOCC3)ccc2F)C1C (configuration not stated),inactive
14,CCc1cccc2c(C(=O)CN3C(=O)NC(C)(c4cccc5ccccc45)C3=O)c[nH]c12 (configuration not stated),"inconclusive [inhibitor, partial curve, poor fit]"
15,COc1ccc(N2CCN(c3oc(/C=C/c4ccccc4OC)nc3C#N)CC2)cc1,inactive
16,CCN(CC)S(=O)(=O)c1ccc(NC(=O)C(C)N(c2ccccc2)S(C)(=O)=O)cc1 (configuration not stated),"inconclusive [inhibitor, single point]"
17,COc1cc(C(=O)NNC(=S)NC(=O)c2ccc(F)cc2)cc(OC)c1OC,inactive
18,Cc1cccc([C@@H]2[C@@H]3C(=O)N(Cc4ccccc4)C(=O)[C@@H]3[C@]3(C)C(=O)N(c4cccc(Cl)c4)C(=O)N23)c1,"inconclusive [inhibitor, single point]"
19,CNc1ccccc1C(=O)OC(C)C(=O)Nc1ccc(S(=O)(=O)N2CCCC2)cc1 (configuration not stated),"inconclusive [inhibitor, partial curve, poor fit]"
20,O=c1c2c3c(sc2n(CCN2CCOCC2)c(=O)n1Cc1ccco1)CCCCC3,"inconclusive [inhibitor, partial curve, poor fit]"
